Experiment [1] has as its target T1, FLAG-BHMT (R. norvegicus) (UniProt O09171).
T1 sequence: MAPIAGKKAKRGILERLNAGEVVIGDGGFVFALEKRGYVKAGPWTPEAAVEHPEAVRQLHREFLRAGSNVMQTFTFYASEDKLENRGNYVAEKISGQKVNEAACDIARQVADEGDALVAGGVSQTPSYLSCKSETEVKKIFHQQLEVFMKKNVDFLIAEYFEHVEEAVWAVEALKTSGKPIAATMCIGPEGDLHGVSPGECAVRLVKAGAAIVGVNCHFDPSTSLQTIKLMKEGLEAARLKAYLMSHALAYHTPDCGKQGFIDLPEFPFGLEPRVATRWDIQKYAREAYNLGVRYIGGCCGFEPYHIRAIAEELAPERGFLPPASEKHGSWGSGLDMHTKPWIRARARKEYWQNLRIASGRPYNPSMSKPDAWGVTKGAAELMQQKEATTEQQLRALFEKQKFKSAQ
The experiment in a line: co-IP; Cos7 cells cotransfected with pFLAG-BHMT and pHA-prey (1:1), lysates 48 h after transfection; anti-FLAG M2 agarose overnight at 4°C; anti-HA immunoblot; 50 mM Tris/HCl pH 7.5, 150 mM NaCl, 1 mM EDTA, 1% NP-40, 1 mM DTT.

The chains behind the UniProt entries cited, without tags or fusion partners. Where a name states a change or a piece, a line headed by the entry shows the natural chain unless it says otherwise. A line that says so, or that is headed by a name, gives the form on record, which may keep a tag or linker.
HA-MATα1 (P13444, form named): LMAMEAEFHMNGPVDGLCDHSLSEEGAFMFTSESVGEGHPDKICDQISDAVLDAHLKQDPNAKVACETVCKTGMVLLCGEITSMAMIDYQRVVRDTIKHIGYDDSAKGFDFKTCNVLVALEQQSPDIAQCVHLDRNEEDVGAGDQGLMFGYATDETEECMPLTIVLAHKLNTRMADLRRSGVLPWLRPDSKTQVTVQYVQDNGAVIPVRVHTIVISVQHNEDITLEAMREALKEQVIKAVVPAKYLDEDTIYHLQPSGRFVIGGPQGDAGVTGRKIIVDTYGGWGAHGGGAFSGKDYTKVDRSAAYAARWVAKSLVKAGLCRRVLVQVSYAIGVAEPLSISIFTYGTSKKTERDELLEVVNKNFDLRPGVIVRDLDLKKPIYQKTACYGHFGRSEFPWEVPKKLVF
HA-MATα2 (P18298, form named): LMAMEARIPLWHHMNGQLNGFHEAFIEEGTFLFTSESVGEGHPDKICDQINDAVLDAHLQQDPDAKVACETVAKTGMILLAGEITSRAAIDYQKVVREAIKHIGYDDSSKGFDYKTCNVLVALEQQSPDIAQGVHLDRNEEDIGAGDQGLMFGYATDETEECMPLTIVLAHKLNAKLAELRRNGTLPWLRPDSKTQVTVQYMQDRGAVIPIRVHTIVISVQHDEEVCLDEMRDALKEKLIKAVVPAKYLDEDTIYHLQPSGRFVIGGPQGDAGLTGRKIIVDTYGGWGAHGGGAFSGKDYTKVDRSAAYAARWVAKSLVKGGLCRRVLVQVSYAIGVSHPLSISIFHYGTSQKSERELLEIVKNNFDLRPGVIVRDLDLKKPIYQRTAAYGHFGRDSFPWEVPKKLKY
HA-HMGB1 (high mobility group protein B1) (P63159, form named): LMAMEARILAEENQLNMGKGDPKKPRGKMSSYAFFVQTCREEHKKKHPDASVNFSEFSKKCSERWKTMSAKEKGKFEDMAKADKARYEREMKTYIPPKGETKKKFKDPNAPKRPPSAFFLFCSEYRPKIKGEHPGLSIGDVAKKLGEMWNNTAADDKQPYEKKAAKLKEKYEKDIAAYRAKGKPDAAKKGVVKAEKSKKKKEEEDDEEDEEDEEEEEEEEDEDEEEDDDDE

Experiment [2] has as its target BHMT, yeast two-hybrid fusion (pGBKT7-BHMT) (rat) (UniProt O09171). The experiment in a line: two-hybrid; pGBKT7-BHMT bait against a rat liver Matchmaker cDNA library in yeast AH109; growth on -Ade/-His/-Leu/-Trp SC medium; verified by cotransformation.
Experiment [3] addresses T2, HA-HPD (4-hydroxyphenylpyruvic acid dioxygenase) (rat) (UniProt P32755).
T2 sequence: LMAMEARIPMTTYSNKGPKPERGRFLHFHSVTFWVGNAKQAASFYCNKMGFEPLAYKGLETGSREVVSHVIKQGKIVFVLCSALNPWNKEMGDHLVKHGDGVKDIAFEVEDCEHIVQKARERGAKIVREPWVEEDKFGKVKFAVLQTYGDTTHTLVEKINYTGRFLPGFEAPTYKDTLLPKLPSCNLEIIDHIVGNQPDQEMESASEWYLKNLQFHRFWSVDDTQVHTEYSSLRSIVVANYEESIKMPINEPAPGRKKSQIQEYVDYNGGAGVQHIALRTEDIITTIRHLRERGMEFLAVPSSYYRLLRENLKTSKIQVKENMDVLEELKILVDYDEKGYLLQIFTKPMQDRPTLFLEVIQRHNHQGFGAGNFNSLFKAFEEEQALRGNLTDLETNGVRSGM
Description: co-IP; Cos7 cells cotransfected with pFLAG-BHMT and pHA-prey (1:1), lysates 48 h after transfection; anti-HA on protein A Sepharose overnight at 4°C; immunoblot with a mixture of anti-HA and anti-BHMT. On the technique in general: A western blot detects proteins with antibodies after separation by electrophoresis.

Experiment [4] concerns the target T3, HA-ALDOB (aldolase B) (rat) (UniProt P00884).
T3 sequence: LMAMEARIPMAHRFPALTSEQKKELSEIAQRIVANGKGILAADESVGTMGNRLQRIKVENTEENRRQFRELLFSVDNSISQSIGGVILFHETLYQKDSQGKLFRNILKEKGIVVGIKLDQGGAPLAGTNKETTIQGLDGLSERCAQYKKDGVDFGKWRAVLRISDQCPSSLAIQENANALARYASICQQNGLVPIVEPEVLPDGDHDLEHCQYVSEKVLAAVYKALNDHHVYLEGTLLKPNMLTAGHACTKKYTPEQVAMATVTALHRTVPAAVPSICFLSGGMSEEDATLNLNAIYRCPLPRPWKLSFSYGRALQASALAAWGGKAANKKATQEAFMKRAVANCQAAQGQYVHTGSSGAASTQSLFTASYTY
The description is as above.

Results are given in words; binding and its absence hold for the method and conditions named. For part of these data: Binding seen in cells or lysates may run through a third protein. Some binding calls cover weakened binding; strength is not graded here. Sequences can lack the tags named with a protein.

On to HA-MATα1 (from UniProt P13444 1-397), for which the binding entry in experiment [1] was “binds”.

Turning to HA-MATα2 (from UniProt P18298 1-395), the binding entry in experiment [1] was “binds”.

On to “HA-HMGB1 (high mobility group protein B1) (from UniProt P63159 1-215)”, for which, in experiment [1], the binding entry is “no binding”.

B1: BHMT, yeast two-hybrid fusion (pGBKT7-BHMT) (enzyme, UniProt O09171 1-407)
chain: T1 sequence
With B1, the binding entry in experiment [2] is recorded as “binds”.

B2: FLAG-BHMT (enzyme, UniProt O09171 1-407)
chain: T1 sequence
Regarding B2, the binding entry in experiment [3] and in experiment [4] was “binds” each time.

The values are drawn from publication PMC6010280.
